SMILES strings stand for the structures. In all, about 310,000 compounds went through this assay and about 2,200 (0.71%) showed an effect of 50% or more. Effects have a minus sign here. The list shows a part of the results.

The values that follow come from publication PMC4336329 (PLoS ONE, 2015).

In this assay the target is human ether-à-go-go-related gene (hERG) potassium channel (human, UniProt Q12809). The experiment in a line: primary screen, population patch clamp on CHO cells stably expressing hERG.
Chain of human ether-à-go-go-related gene (hERG) potassium channel (Q12809 whole entry, looked up): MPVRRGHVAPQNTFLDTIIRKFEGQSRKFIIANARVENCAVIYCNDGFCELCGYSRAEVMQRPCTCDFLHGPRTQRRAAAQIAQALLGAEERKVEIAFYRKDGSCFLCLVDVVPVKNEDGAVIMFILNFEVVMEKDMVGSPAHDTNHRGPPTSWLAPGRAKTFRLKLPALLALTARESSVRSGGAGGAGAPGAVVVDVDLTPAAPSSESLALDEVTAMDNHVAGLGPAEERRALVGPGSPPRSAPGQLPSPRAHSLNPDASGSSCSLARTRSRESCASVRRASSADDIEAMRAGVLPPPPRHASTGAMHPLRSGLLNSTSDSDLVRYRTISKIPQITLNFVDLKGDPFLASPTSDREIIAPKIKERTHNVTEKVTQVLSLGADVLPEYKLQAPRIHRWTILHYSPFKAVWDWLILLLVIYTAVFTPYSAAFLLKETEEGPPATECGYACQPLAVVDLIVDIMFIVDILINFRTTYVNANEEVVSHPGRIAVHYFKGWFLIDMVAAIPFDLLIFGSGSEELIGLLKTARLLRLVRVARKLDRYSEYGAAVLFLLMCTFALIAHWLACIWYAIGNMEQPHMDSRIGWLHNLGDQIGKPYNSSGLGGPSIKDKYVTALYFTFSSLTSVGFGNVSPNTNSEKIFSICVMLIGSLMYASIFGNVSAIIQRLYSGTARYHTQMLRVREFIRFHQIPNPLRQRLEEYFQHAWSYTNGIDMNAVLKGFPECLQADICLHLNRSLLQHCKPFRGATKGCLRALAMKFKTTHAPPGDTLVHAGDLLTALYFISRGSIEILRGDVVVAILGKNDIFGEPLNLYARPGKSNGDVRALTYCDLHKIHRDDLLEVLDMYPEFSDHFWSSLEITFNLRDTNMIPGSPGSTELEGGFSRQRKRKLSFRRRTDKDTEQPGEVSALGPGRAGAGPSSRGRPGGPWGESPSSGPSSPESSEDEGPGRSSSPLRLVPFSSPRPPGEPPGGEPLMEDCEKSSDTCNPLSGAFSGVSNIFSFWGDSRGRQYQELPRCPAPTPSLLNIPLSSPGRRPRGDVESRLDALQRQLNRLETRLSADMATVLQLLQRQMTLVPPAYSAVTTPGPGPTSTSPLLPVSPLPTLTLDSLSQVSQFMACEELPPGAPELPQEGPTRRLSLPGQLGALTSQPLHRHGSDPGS
`O=C(Nc1ccccn1)c1cccc(S(=O)(=O)N2CCCCC2)c1`: the “hERG current change (%, negative = inhibition) at 1uM” value amounted to 4.89%.
With `O=C(O)c1ccccc1S(=O)CCO` (stereo not drawn), the “hERG current change (%, negative = inhibition) at 1uM” value came out at 4.9%.
The value for `O=C(NCc1cccs1)N[C@@H](Cc1ccccc1)C(=O)O` was 8.42%; that for `NC(=O)c1oc2ccccc2c1NC(=O)c1ccc(F)cc1` was 11.1%.
Turning to `CSc1nc(-c2ccc(C)cc2)[nH]c1S(=O)(=O)c1ccccc1`, the “hERG current change (%, negative = inhibition) at 1uM” value came out at 14%.
The value for `C1CNCCN1.COc1cc(C(O)CO)ccc1O` (stereo not drawn) was 10%; that for `CC1(C(=O)NCc2cc(F)cc(C(F)(F)F)c2)C=CC2(CCCCC2)N1C(=O)c1ccccc1` (stereo not drawn) was 6.9%.
For `Cc1ccc(NC(=O)c2ccc(NCCN)c([N+](=O)[O-])c2)cc1`, the “hERG current change (%, negative = inhibition) at 1uM” value amounted to 3.49%.
On to `CC(=O)Nc1cc2c(cc1NC(=O)c1cnccn1)OCCO2`, for which the “hERG current change (%, negative = inhibition) at 1uM” value was 19.8%.
The value for `CC(=O)c1cccc(NC(=O)NC(C)C2CCCO2)c1` (stereo not drawn) was 11.5%.
The value for `Cn1c(=O)c(C(=O)CN2CCCCCC2)c(N)n(Cc2ccccc2)c1=O` was 3.57%; that for `CCN(CC)C(=O)CN1C(=O)C2(NC(=O)c3ccccc3N2)c2ccccc21` (stereo not drawn) was 16.5%.
The value for `O=S(=O)(Nc1ccccc1)c1cccc2nsnc12` was 17.3%; that for `CCOC(=O)C(=N/O)/C(C)=N/NC(C)=O` was 15.9%; that for `COc1cccc(OCCn2c(C)c(/C=N/n3cnnc3)c3ccccc32)c1` was 6.18%.
Consider `O=C(Nc1ccccc1)c1ccc(NCc2ccco2)c(S(=O)(=O)N2CCOCC2)c1`, for which the “hERG current change (%, negative = inhibition) at 1uM” value is 3.17%.
To `CCOC(=O)C1=C(C)NC2=C(C(=O)c3ccccc32)C1c1cccc2ccccc12` (stereo not drawn) belongs 14.3%; to `Cc1cc(C)nc(N2CCC(C(=O)NCc3ccco3)CC2)n1`, 1.22%; to `CC(=O)c1cccc(NC(=S)NC2CC2)c1`, 2.81%.
On to `Cc1ccc(S(=O)(=O)NNC2=NCCCCC2)cc1`, for which the “hERG current change (%, negative = inhibition) at 1uM” value amounted to 2.68%.
To `CN(C)/C=C/C1=C([N+](=O)[O-])C(c2cccc([N+](=O)[O-])c2)NC(=O)N1` (stereo not drawn) belongs 9.47%; to `O=C(/C=C/c1ccccc1)NC(=S)Nc1ccc(N2CCOCC2)cc1`, 14.7%; to `CCOc1ncccc1C(=O)Nc1nnc(C)s1`, 10.8%.
With `CSc1ncc(C(=O)Nc2ccc(Cl)cc2)c(C)n1`, the “hERG current change (%, negative = inhibition) at 1uM” value is 16%.
The value for `Cc1ccc(C)c(S(=O)(=O)N2CCCCC2CCNC(=O)C(=O)NCc2ccccn2)c1` (stereo not drawn) was 10.7%; that for `Cc1ccccc1NC(=O)CN1C(=O)N/C(=C\c2ccccc2OCc2ccc(C(=O)O)cc2)C1=O` was 15.4%.
To `Cc1oc2c(cc(NS(=O)(=O)c3ccc(C(C)C)cc3)c3ccccc32)c1C(=O)O` belongs 8.87%; to `COc1cc2c(cc1OC)CN(C(=O)c1oc3ccccc3c1C)CC2`, 7.12%; to `CCOC(=O)N1CCN(C(=O)CSC2=NS(=O)(=O)c3ccccc3N2)CC1`, 0.037%.
The value for `O=Cc1cc(Br)c(OC(=O)N2CCOCC2)c(Br)c1` was -1.22%; that for `CCOC(=O)c1c(-c2ccccc2)csc1NC(=O)c1ccc(S(=O)(=O)N2CCOCC2)cc1` was 12.5%.
Consider `Cc1cc(S(=O)(=O)N2CCCCC2CCNC(=O)C(=O)NC2CC2)ccc1F` (stereo not drawn), for which the “hERG current change (%, negative = inhibition) at 1uM” value came to 4.66%.
The value for `COc1ccc(NC(=O)Cn2nnc3sc4c(c3c2=O)CC(C)(C)OC4)cc1` was 5.39%.
The value for `C/C(=N\NC(=O)c1nnn(-c2nonc2N)c1-c1cccs1)c1cccnc1` was 2.34%; that for `O=C(Cc1cccc(NC(=O)C2CCN(C(=O)C3CC3)CC2)c1)Nc1cccc(C(=O)N2CCCC2)c1` was 9.97%; that for `CCOC(=O)c1nc2c(=O)n(C)c(=O)n(C)c2n(C)c1=O` was 13.7%.
For the compound `Cc1cc(C)n2nc(SC(C)C(=O)NCc3ccco3)nc2n1` (stereo not drawn), the “hERG current change (%, negative = inhibition) at 1uM” value turned out to be 10.1%.
The value for `COc1ccc(S(=O)(=O)Nc2ccccc2OC)cc1NC(=O)CC1CC2CCC1C2` (stereo not drawn) was 3.53%; that for `N=c1oc2ccccc2cc1C(=O)Nc1ccc(F)cc1` was 14%; that for `Cc1ccc(CN2C(=O)CCC2C(=O)NCCc2ccccc2)cc1` (stereo not drawn) was 14.2%.
Take `CC(Sc1nnc(-c2ccc(Cl)cc2)n1C)C(N)=O` (stereo not drawn): the “hERG current change (%, negative = inhibition) at 1uM” value came to 2.15%.
To `COC(=O)C1=C(c2cc3ccccc3s2)C[C@@H]2CC[C@H]1N2C` belongs 9.17%; to `Cc1cc(OCC(=O)Nc2sc3c(c2C#N)CC(C)(C)NC3(C)C)c(C(C)C)cc1Cl`, 11.3%; to `Cc1ccccc1-c1noc(-c2ccccc2C(=O)N2CCCC2)n1`, 4%.
To `COc1cc(/C=C/C(=O)O)cc(S(=O)(=O)NC2CCCC2)c1OC` belongs 11.3%; to `Nc1ccc(Cl)c(S(=O)(=O)Nc2ccc(Cl)cc2)c1`, 14.1%; to `Cn1c(=O)[nH]c(=O)c2c1nc(Br)n2CCCSc1nc2ccccc2o1`, -22.4%.
The value for `COc1cc(C(=O)N2CCN(C(=O)c3cccc4ccccc34)CC2)cc(OC)c1OC` was 12.4%; that for `CC1=CCC2C(=O)N(c3ccc4ccccc4n3)C(=O)C2C1` (stereo not drawn) was -4.17%; that for `CC(=O)N(C)/C=C1\Sc2ccccc2C1=O` was 10.2%.
With `CSCSC1=C(C#N)C(c2ccccc2Cl)C(C(C)=O)=C(C)N1` (stereo not drawn), the “hERG current change (%, negative = inhibition) at 1uM” value is recorded as 8.45%.
As to `Cc1nc(-c2cc(-c3nc(-c4cc(C(F)(F)F)cc(C(F)(F)F)c4)no3)no2)cs1`, the “hERG current change (%, negative = inhibition) at 1uM” value was 14.5%.
The value for `CC(=O)c1ccccc1Oc1nc(CN2CCOCC2)nc2scc(-c3cccs3)c12` was 11.6%.
As for `O=C(N/N=C/c1cccc([N+](=O)[O-])c1)c1ccncc1`, the “hERG current change (%, negative = inhibition) at 1uM” value came out at 10.8%.
To `CCn1c(C)c(CS(=O)(=O)c2ccccc2)[nH]c1=O` belongs 28.9%; to `Cc1cc([N+](=O)[O-])nn1Cc1ccc(C(=O)N/N=C/c2ccccc2)cc1`, 6.72%.
The value for `CCN(CC)CCCNc1oc(-c2ccccc2[N+](=O)[O-])nc1C#N` was 5.21%; that for `CN(C)CCCn1c(=O)n(Cc2ccccc2)c(=O)c2c3c(sc21)CCCCC3` was 4.25%.
The value for `CCCOc1ccc(C2C3=C(CCCC3=O)N(CC(=O)O)C3=C2C(=O)CCC3)cc1OCC` was 16.3%.
As to `CCCC(=O)N=C1SC2CS(=O)(=O)CC2N1c1ccc(CC)cc1` (stereo not drawn), the “hERG current change (%, negative = inhibition) at 1uM” value is listed as 11.8%.
The value for `COCCN(Cc1cc2cc3c(cc2nc1Cl)OCO3)C(=O)Nc1ccccc1OC` was 12.3%; that for `O=[N+]([O-])c1cccc(S(=O)(=O)N2CCCC2)c1` was -3.67%; that for `CCN1CCN(c2cc(C)c3cc(NC(=O)CCC(=O)Nc4ccc(OC)cc4OC)ccc3n2)CC1` was 13.4%.
Turning to `COc1ccc(CNS(=O)(=O)c2cc(-c3cc(C)no3)ccc2OC)cc1OC`, the “hERG current change (%, negative = inhibition) at 1uM” value is listed as 9.88%.
To `COc1cccc(C(=O)N2c3ccccc3Sc3ccccc32)c1` belongs 1.25%; to `CCCSc1nc(C)c2cc(C)cc(C)c2n1`, 9.27%; to `O=C(COC(=O)C1(c2ccccc2F)CCCC1)N1CCN(C(=O)c2ccco2)CC1`, 11.6%.
To `CCN=c1scc(-c2ccco2)n1/N=C/c1ccc(OC)c(O)c1` belongs -6.07%; to `COc1ccc(C(=O)Nc2ccc(NC(=O)c3cccs3)cc2)cc1[N+](=O)[O-]`, 10.7%; to `COc1cc(C2=Nc3c(c(C)nn3-c3ccccc3)P(=O)(N3CCOCC3)O2)cc(OC)c1OC` (stereo not drawn), 16.4%.
`Cc1cccn2cc(CNC(=O)c3ccc(Br)o3)nc12`: the “hERG current change (%, negative = inhibition) at 1uM” value stood at 5.26%.
To `COc1ccc(CN(C)Cc2cc(=O)n3ccsc3n2)c(OC)c1OC` belongs 3.18%; to `Cc1c(NC(=O)CN2C(=O)C3C4C=CC(C4)C3C2=O)c(=O)n(-c2ccccc2)n1C` (stereo not drawn), 5.38%.
To `O=C1OCC(c2ccc(Cl)s2)=C1c1ccccc1[N+](=O)[O-]` belongs 16.2%; to `COc1ccc(C(c2nnnn2Cc2ccc(F)cc2)N2CCN(c3ccccc3)CC2)cc1` (stereo not drawn), 3.44%; to `COc1ccc2c(c1)C(c1cccs1)=NNC(c1ccncc1)=N2`, 1.92%.
The value for `C=CCN1C2CCCC1CC(NC(=O)Nc1cccc(C(C)=O)c1)C2` (stereo not drawn) was 11.3%; that for `CCCCc1cc(=O)oc2cc(C)cc(OCC(=O)N3CCC(C(N)=O)CC3)c12` was 4.77%; that for `C#CCOCCOCCOCCNc1nc(N2CCOCC2)nc(N2CCN(C(=O)[C@H]([C@@H](C)O)n3cc(CCCC[NH3+])nn3)CC2)n1.[Cl-]` was 16.1%.
For `O=C1OCCC1Sc1ncnc2sc3c(c12)CCC3` (stereo not drawn), the “hERG current change (%, negative = inhibition) at 1uM” value was 5.58%.
The value for `CCCNc1nc(C)nc2c1cnn2CCc1ccccc1` was 16.1%; that for `Cc1ccc(COn2c(-c3ccc(Cl)cc3Cl)nc3ncccc32)cc1` was -12.8%.
To `Cc1nn(Cc2ccccc2Cl)c(C)c1C(=O)N1CCN(c2ccccc2)CC1` belongs -32.3%.
To `COc1cc(/C=N/NC(=O)c2cccc(S(=O)(=O)N3CCOCC3)c2)cc(OC)c1O` belongs 0.944%; to `O=C(Nc1ccc(NC(=O)c2ccc3c(c2)OCO3)cc1)c1cccc(Cl)c1`, 17.4%; to `CCOC(=O)C(C)n1cnc2sc(C)c(C)c2c1=O` (stereo not drawn), 14.1%.
Consider `Cc1cc(OCC(=O)NC2CC(C)(C)NC(C)(C)C2)c2c(C)c(C)c(=O)oc2c1`, for which the “hERG current change (%, negative = inhibition) at 1uM” value was 13.8%.
